Results from ChEMBL document CHEMBL4888484, “Replenishing the malaria drug discovery pipeline: Screening and hit evaluation of the MMV Hit Generation Library 1 (HGL1) against asexual blood stage Plasmodium falciparum ,using a nano luciferase reporter read-out” (2022).
The whole screen tested about 150,000 compounds, of which about 540 (0.36%) showed an effect of 50% or more. The list shows a part of the results.

Test system: Plasmodium falciparum
Experiment: Primary screen in NF54 nanoGlo assay, in single point, at 2uM, 72h; a lower Z score goes with more inhibition
Format: functional, Erythrocyte
Details: timepoint 72 hour

| Structure (SMILES) | % Inhibition [%] | Z score |
| --- | --- | --- |
| COc1ccc(C(=O)N[C@@H](C(=O)Nc2ccccc2C)c2ccc(Cl)cc2)cc1 | 42 | -1.59 |
| O=C(O)C1CCC2CCCCC2N1C(=O)Cc1ccsc1 (stereo unspecified) | 5 | -0.96 |
| Cc1nccn1C[C@H](C)NCc1nncn1CCc1ccccc1 | 4 | -0.52 |
| Cc1ccc(-c2ncc(C(=O)N3CCC4(CCCC4)C3)c(O)n2)cc1 | -8 | 0.89 |
| O=C1CC2CCC(CN1)N2C(=O)c1ccc(-c2ccccc2F)o1 (stereo unspecified) | 33 | -3.33 |
| O=C1C[C@@H](c2ccccc2)N(c2ncnc3cc(Cl)ccc23)CCN1 | -5 | 0.98 |
| CC[C@H](C)NC(=O)Nc1cccc(F)c1 | -11 | 2.18 |
| Cc1cc(C)c(CS(=O)(=O)CC(=O)N2CCO[C@@H](C)C2)c(C)c1 | 0 | 0.03 |
| O=C(Cn1ccnc1-c1ccnc(N2CCCC2)c1)NCc1ccccc1Cl | 7 | -0.83 |
| O=C(c1ccnc(/C=C/C2CCCCC2)c1)N1CCOCC1 | -21 | 2.03 |
| Cc1n[nH]c(C)c1NC(=O)CN1CC(C)OC(C)C1 (stereo unspecified) | 31 | -4.12 |
| Cc1ccc(NC(=O)c2cnn(C(C)C)c2N)s1 | -5 | 0.64 |
| Fc1cccc(F)c1CN1CCO[C@@H](Cn2ccnn2)C1 | 14 | -1.6 |
| Cc1cc(C)nc(Nc2nc(CC(=O)Nc3cccnc3)cs2)n1 | -28 | 4.08 |
| O=C(NC1CC1)[C@@H]1CN(Cc2cnc(-c3ccc(Cl)cc3)nc2)CCN1 | 4 | -0.64 |
| C[C@]1(O)CCN(C(=O)c2ccc3[nH]nnc3c2)C[C@@H]1O | 1 | -0.12 |
| CCOc1ccccc1N(C)Cc1cc(C(N)=O)cs1 | -5 | 0.48 |
| C[C@@H]1CN(CC(=O)N(Cc2cocn2)Cc2cocn2)C[C@H](C)O1 | -1 | 0.2 |
| CC[C@H](C)N(CC(=O)N(CCc1ccccc1)Cc1ccco1)C(=O)CC(C)(C)C | 10 | -1.06 |
| C[C@H](NC(=O)c1cnccn1)c1nc(-c2ccncc2)cs1 | -17 | 2.63 |
| Cc1ccc(CC(=O)N2CCCn3nncc3C2)cc1Cl | -1 | 0.19 |

| Structure (SMILES) | % Inhibition [%] | Z score |
| --- | --- | --- |
| Cc1cc(CN(c2ccccc2Br)S(=O)(=O)N(C)C)nn1C | 3 | -0.27 |
| CCN(CC)C(=O)Cn1cc(C(=O)N[C@H](C)c2cccc(OC)c2)nn1 | 12 | -1.56 |
| O=C1C[C@@H]2CCN(C(=O)C3CCOCC3)C[C@@H]2CCOc2ccc(C(F)(F)F)cc2N1 | -7 | 0.96 |
| Cc1nn(C)c(OC[C@H]2CCCCO2)c1C(=O)NCc1nccc(C(F)F)n1 | 0 | 0.05 |
| O=C1N(Cc2ccccc2F)CCC[C@@]1(O)CN1CCCOCC1 | 5 | -0.7 |
| COC(=O)c1ccc(NC(=O)CCc2csc(C)n2)cc1 | -14 | 1.76 |
| Fc1ccc(CNc2ccc3c(c2)OCO3)cc1Br | -3 | 0.48 |
| COc1ccc(CC(=O)NC[C@H]2CC(Cc3ccc(F)cc3)=NO2)cc1 | 3 | -0.36 |
| CC(C)NC(=O)Cc1cc(-c2ccc3c(c2)C[C@H](C)O3)on1 | -8 | 1.49 |
| CCn1ccc(C(=O)NC(Cc2ccncc2)[C@H]2C[C@H](O)C2)cc1=O (stereo partly specified) | -12 | 1.26 |
| Oc1ccccc1-c1cc(-c2ccc(F)cc2)cc(-c2ccccc2)n1 | -5 | 0.54 |
| Cc1cccc(CNC(=O)[C@]2(C)Cn3nc(-c4cccs4)cc3C(=O)N2c2ccc(C)cc2Cl)c1 | -10 | 1.56 |
| CN(C)c1ccc(CN2CCOC[C@H]2c2nc(C(C)(C)C)co2)cc1 | 16 | -1.81 |
| CC(C)C(NC(=O)c1ccco1)C(=O)NCC1CCCC1O (stereo unspecified) | 5 | -0.73 |
| Cc1cccc2c1N(C(=O)[C@@H]1OCC[C@@H]1C(C)C)CC2 | -1 | 0.12 |
| CCOC(=O)C(c1cc(Cl)cc(Cl)c1)N(CC)C(=O)C(C)S(=O)(=O)C(C)C (stereo unspecified) | -1 | 0.07 |
| CCCn1cc(CN(C)C2(COC)CC2)c(C)n1 | 12 | -1.68 |
| CO[C@H]1CCC[C@@H]1Nc1nccn2nc(C)cc12 | 9 | -1.13 |
| Cc1n[nH]c2c1CN(C(=O)[C@H](C)n1ccnc1)CC2 | -23 | 2.45 |
| CN1CC2(CCN(C(=O)NC3CCCC3)CC2)C[C@@H](c2ccccc2)C1=O | 16 | -2.04 |
| O=C(NCC1(c2ccccc2)CC1)c1ccc2c(c1)OCO2 | -6 | 0.79 |

| Structure (SMILES) | % Inhibition [%] | Z score |
| --- | --- | --- |
| c1ccc2c(c1)CCC[C@H]2c1noc(-c2nccc3ccccc23)n1 | -2 | 0.28 |
| O=C1C[C@H](NS(=O)(=O)c2c(F)cccc2F)CN1C1CC1 | -13 | 2.05 |
| Cc1ccc(Cl)cc1-n1ncc2c(N3CCCCCC3)ncnc21 | 4 | -0.53 |
| C[C@@H](C(=O)N1CCc2ccccc21)N1C(=O)CCC1=O | 9 | -1.01 |
| COc1ccc([C@@H]2CC(=O)Nc3ccc4nn(-c5ccccc5)nc4c32)cc1O | -5 | 0.61 |
| Cc1cc(N)n(CC(=O)N(C)Cc2c[nH]nc2C)n1 | -18 | 3.38 |
| Cc1nc(-c2cc3ccccc3nc2N2CCN(C(=O)Cc3ccccc3)CC2)no1 | -10 | 1.81 |
| CC(C)(C)c1noc(CN2C[C@@H](O)[C@@H](O)C2)n1 | -7 | 0.91 |
| O=c1ccccn1Cc1cc(Cl)c2c(c1)OCO2 | 1 | -0.22 |
| Cc1ccc(NC(=O)Cn2ncn3c(C)c(C(=O)NCc4ccc(F)cc4)c(C)c3c2=O)cc1F | -6 | 0.91 |
| Cc1cn2ccc(C(=O)N[C@H]3CCS(=O)(=O)C4(CCC4)C3)cc2n1 | -1 | 0.22 |
| COc1cccc(-c2cn(CC(=O)Nc3cccc(C)c3C)nc2N2CCOCC2)c1 | -5 | 0.6 |
| Cc1nc(-c2ccccn2)n(Cc2ccc(C(N)=O)cc2)n1 | -6 | 0.49 |
| CCCc1cnc(C)nc1N1CCC(NC2CCOCC2)CC1 | 1 | -0.19 |
| CC(=O)N1C[C@H](O)C[C@@H]1c1nc(-c2ccc(F)cc2)no1 | -9 | 1.89 |
| COc1ccc(NC(=O)N[C@H](CO)C(C)(C)C)cc1C | -10 | 1.51 |
| CN1CCN(C(=O)N2CCCn3nc(-c4nc5ccccc5[nH]4)cc3C2)CC1 | 0 | 0 |
| COC(=O)[C@@H]1C[C@@H](N(C)C)CN1S(=O)(=O)c1ccccc1OC | -7 | 1.36 |
| O=C(Cc1cccc(F)c1)Nc1ccc2c(c1)NCCC2 | 1 | -0.09 |
| CCn1ccc(C(=O)N2CC[C@H](n3c(=O)[nH]c4cncnc43)C2)n1 | -19 | 3.06 |
| Cc1ncsc1CCC(=O)N1C[C@H](C(=O)O)[C@@H](c2ccc(F)cc2)C1 | 2 | -0.31 |

| Structure (SMILES) | % Inhibition [%] | Z score |
| --- | --- | --- |
| COc1cc(C2C(C(=O)N3CCCC3)CCC(=O)N2c2ccc3c(c2)OCO3)cc(OC)c1OC (stereo unspecified) | -10 | 1.55 |
| FC(F)(F)Cc1noc(CN2CCC[C@H]2COc2ccccc2)n1 | -2 | 0.29 |
| COc1ccc(CNc2cc(C(=O)NC3CCCC3)cc(S(=O)(=O)Nc3ccccc3)c2)cc1OC | -10 | 1.31 |
| C1=C(CN2CCC[C@H](N3CCCC3)CC2)COc2ccccc21 | 13 | -1.66 |
| CCCN(Cc1ccccn1)C(=O)NC[C@H]1CCN(Cc2ccccc2C)C1 | 7 | -1.39 |
| C[C@H]1CNc2cc(S(N)(=O)=O)ccc21 | 11 | -1.28 |
| CCCc1cc(C(=O)N(C)[C@@H](C)c2cncs2)[nH]n1 | -14 | 2.05 |
| CCc1ccc(-c2cc(C(=O)N[C@@H](C)c3n[nH]c(N)n3)[nH]n2)cc1 | -12 | 1.63 |
| CCCN(CC1CC1)[C@H]1CCC(=O)N(Cc2ccc(C(=O)OC)cc2)CC1 | -13 | 1.89 |
| O=C(N[C@H]1C[C@H]2CC[C@@H]1C2)c1cc(COc2cccc3cccnc23)on1 | 1 | -0.17 |
| O=C(CCc1nnc(C(=O)Nc2cccc(Cl)c2)s1)NCCN1CCCC1 | -8 | 1.59 |
| COC(=O)C1CCN(C(=O)c2cc(Cl)c3c(c2)OCCCO3)CC1 | -9 | 1.4 |
| CN1CCN(c2nc3c(c(Oc4ccc(F)c(F)c4)n2)CN(S(=O)(=O)c2ccccc2)CC3)CC1 | 8 | -1.15 |
| COc1cc(NC(C)=O)cc(OC)c1OC | -2 | 0.39 |
| Cc1nc(N)sc1-c1ccn(C[C@H]2COc3ccccc3O2)n1 | -18 | 2.03 |
| Cc1noc(C2CCN(C(=O)[C@@](C)(O)CCc3ccccc3)CC2)n1 | -1 | 0.09 |
| CCOC(=O)[C@H](Cc1ccc(OC(=O)CNC(=O)OCc2ccccc2)cc1)NC(=O)OCc1ccccc1 | 26 | -3.49 |
| CC(C)(C)OC(=O)[C@]1(C)CCCN1CCN1C(=O)CNC1=O | -2 | 0.22 |
| O=C(COc1ccc2c(c1)OCO2)N[C@H]1CCOC2(CCOCC2)C1 | -10 | 1.89 |
| O=C(C1CCC1)N1CCOc2ccc(CN3CCc4ccccc4C3)cc2C1 | -16 | 1.74 |
